Source: PubChem BioAssay (NCATS)
Some of the results follow. Shown are side measurements of this screen, not its main read-out; they come without a call. Most of these compounds were active or inconclusive in the main read-out, so they are no random draw. The note in brackets gives the kind of curve behind each potency; many fits are weak.

Experiment: qHTS Assay for Lipid Storage Modulators (AID 1519)
Settings: Drosophila S3 cells, BODIPY lipid droplet/cell ratio, laser cytometry, cells loaded with oleic acid
Method in brief: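 Cells seeded at 5,000 per well were treated with compounds over a concentration series and loaded with oleic acid (400 uM, as added). Lipid droplet fluorescence (488 nm excitation, 500-530 nm channel) was read by laser-scanning cytometry and normalized to 20 uM Triacsin C.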

[1] = measured here: cell count channel max response
[2] = measured here: cell number channel AC50
[3] = measured here: lipid channel max response
[4] = measured here: lipid (BODIPY) channel AC50
Tags describe the fitted curve by direction and shape.

Structure (SMILES) | max response [1] [%] | AC50 [2] | max response [3] [%] | AC50 [4]
COc1ccccc1CNc1ccnc(-c2ccc(N(C)C)cc2)n1 | -32.9 | 39.8 µM [falling, single point] | -64.3 | –
O=c1c(-c2ccc(Cl)cc2)nc2cnc(N3CCNCC3)nc2n1CCc1ccccc1 | -29.7 | – | -45.7 | 39.8 µM [falling, single point]
COc1cccc(-c2ccc3ncnc(NCc4cnc(C)cn4)c3c2)c1 | -0.068 | – | -1.19 | 3.98 µM [rising, partial curve, poor fit]
Cc1cccc(CNc2cc(-c3ccccc3Cl)ncn2)c1 | 13.4 | – | 13.4 | 7.94 µM [rising, single point]
CC1(C)CC[C@]2(C(=O)O)C(O)C[C@@]3(C)C(=CCC4[C@@]5(C)CCC(O)C(C)(C)C5CC[C@@]43C)C2C1 (some centres not stated) | 6.57 | – | 39.5 | 28.2 µM [rising, partial curve, poor fit]
COc1cccc(Nc2ncc3nc(-c4ccc(Cl)cc4)c(=O)n(CCC#N)c3n2)c1 | 59.4 | 6.31 µM [rising, partial curve] | -6.51 | –
O=C(O)/C=C/C=C/c1ccccc1 | 27.9 | – | 42.2 | 17.8 µM [rising, partial curve]
O=c1cnc2cnc(Nc3ccccc3)nc2n1CCc1ccccc1 | -5.46 | – | -6.14 | 1.26 µM [rising, full curve, poor fit]
COc1ccc(C(=O)N2CCC3(CCN(Cc4nccs4)CC3)CC2)cc1 | 23.2 | – | 30.6 | 4.47 µM [rising, partial curve, poor fit]
COc1cccc(Nc2ncc3nc(CCc4ccccc4)c(=O)n(C[C@H]4CCCO4)c3n2)c1 | 10.3 | – | 4.67 | 0.0708 µM [rising, full curve, poor fit]
O=C(c1ccco1)N1CCC2(CCCN(c3ccccc3)C2)CC1 | 21.2 | – | 21 | 0.316 µM [rising, partial curve, poor fit]
COc1cccc(Nc2ncc3nc(-c4cccs4)c(=O)n(Cc4cccs4)c3n2)c1 | 20 | – | -47 | 17.8 µM [falling, single point]
Fc1ccc([C@H]2CCNC[C@H]2COc2ccc3c(c2)OCO3)cc1 | 65 | – | 82.4 | 31.6 µM [rising, partial curve]
COc1cccc(Cn2c(=O)c(-c3cccs3)nc3cnc(N4CCNCC4)nc32)c1 | 13.7 | – | 13.3 | 0.631 µM [rising, full curve, poor fit]
COc1ncc2nc(-c3cc(F)cc(F)c3)c(=O)n(C3CC3)c2n1 | 20.4 | – | 28.2 | 0.0316 µM [rising, full curve, poor fit]
COCCn1c(=O)c(-c2ccccc2)nc2cnc(Oc3ccc(OC)cc3)nc21 | -5.68 | – | -5.45 | 1.26 µM [rising, full curve, poor fit]
COc1ccc2[nH]cc(CCNc3ccnc(-c4cccc(C#N)c4)n3)c2c1 | 31.2 | – | 38 | 0.01 µM [rising, full curve, poor fit]
Nc1ncnc2c1ncn2[C@@H]1O[C@H](CO)[C@H](O)[C@H]1O | 28.9 | – | 30.2 | 39.8 µM [rising, single point]
COc1ccc(Nc2ncc3nc(-c4cccs4)c(=O)n(Cc4cccc(OC)c4)c3n2)cc1 | 61.8 | 15.8 µM [rising, partial curve] | -9.61 | –
COc1ccc(C(=O)N2CCC3(CCN(C(=O)Nc4cccc(C#N)c4)CC3)CC2)cc1 | -5.79 | – | -0.852 | 3.98 µM [rising, partial curve]
C#CCCCCCCCCCCCC(O)CC(O)COC(C)=O (configuration not stated) | 14.5 | – | 39.7 | 11.2 µM [rising, partial curve, poor fit]
CCNc1ncc2nc(-c3cccs3)c(=O)n(-c3ccc(OC)cc3)c2n1 | 41.5 | 0.0398 µM [rising, full curve, poor fit] | -8.87 | –
COc1ccc(Oc2ncc3nc(-c4ccccc4)c(=O)n(C[C@H]4CCCO4)c3n2)cc1 | -4.25 | – | -36.6 | 39.8 µM [falling, single point]
O=c1c(-c2ccccc2)nc2cnc(N3CCOCC3)nc2n1C[C@H]1CCCO1 | 1.42 | – | 0.502 | 8.91 µM [rising, single point]
COc1cccc(Nc2ncc3nc(-c4ccccc4)c(=O)n(C[C@H]4CCCO4)c3n2)c1 | -8 | – | -47.2 | 20 µM [falling, single point]
COc1cccc(Nc2ncc3nc(-c4cccs4)c(=O)n(C[C@H]4CCCO4)c3n2)c1 | -5.65 | – | -42.3 | 39.8 µM [falling, single point]
Cn1c(=O)c(-c2ccc(F)cc2)nc2cnc(N3CCOCC3)nc21 | 24.2 | – | 34.2 | 8.91 µM [rising, partial curve, poor fit]

Structure (SMILES) | max response [1] [%] | AC50 [2] | max response [3] [%] | AC50 [4]
Cc1cnc(CNc2cc(-c3ccccc3CN(C)C)ncn2)cn1 | 20.7 | – | 31.6 | 17.8 µM [rising, single point]
COc1ccc(-c2coc3c(OC)c(OC)cc(O)c3c2=O)cc1 | 5.77 | – | 24.4 | 0.0794 µM [rising, full curve, poor fit]
CCNc1ncc2nc(-c3cccs3)c(=O)n(-c3ccccc3)c2n1 | -16.2 | – | -38.4 | 39.8 µM [falling, single point]
COc1ccccc1CNc1ncnc2ccc(-c3ccc(C(=O)N(C)C)cc3)cc12 | 9.99 | – | 7.75 | 1.58 µM [rising, full curve]
COc1cccc(-c2cncnc2NCc2cnc(C)cn2)c1 | 23.9 | – | 29.4 | 2 µM [rising, full curve, poor fit]
N#Cc1ccc(CN2CCCC3(CCN(C(=O)c4cnccn4)CC3)C2)cc1 | 23 | – | 33.1 | 3.16 µM [rising, partial curve, poor fit]
N#Cc1cccc(NC(=O)N2CCCC3(CCN(C(=O)c4ccncc4)CC3)C2)c1 | 25.7 | – | 32.9 | 1 µM [rising, full curve, poor fit]
COc1ncc2nc(CCc3ccccc3)c(=O)n(Cc3cccs3)c2n1 | 13.9 | 4.47 µM [rising, partial curve] | 23.2 | –
CN(Cc1ccco1)c1nc(-c2cccnc2)nc2ccccc12 | 7.24 | – | 10.9 | 3.98 µM [rising, partial curve]
O=C(Nc1cccc(F)c1)N1CCCC2(CCNCC2)C1 | 27.6 | – | 36.1 | 6.31 µM [rising, full curve, poor fit]
CC(C)NC(=O)N1CCC2(CC1)CCN(C(=O)c1cccn1C)CC2 | 21.4 | – | 30 | 15.8 µM [rising, single point]
Cn1c(=O)c(-c2cccc(F)c2)nc2cncnc21 | 28.3 | – | 39.6 | 2 µM [rising, full curve]
COc1cccc(OC)c1C(=O)NC1C(=O)N2C1SC(C)(C)C2C(=O)O (configuration not stated) | 16.7 | – | 34.4 | 39.8 µM [rising, single point]
COc1cccc(Nc2ncc3ncc(=O)n(C[C@H]4CCCO4)c3n2)c1 | -35.3 | 39.8 µM [falling, single point] | -61.1 | –
Cn1c(=O)c(-c2ccccc2)nc2cnc(OCc3ccccc3)nc21 | 13.4 | – | 20.1 | 1.41 µM [rising, full curve, poor fit]
COc1ccccc1CNc1nc(-c2ccccc2OC)nc2ccccc12 | 0.419 | 1.58 µM [rising, full curve, poor fit] | -7.11 | –
CN1CCN(c2ncc3nc(-c4cn(C)c5ccccc45)c(=O)n(C[C@H]4CCCO4)c3n2)CC1 | 29.2 | – | 34.1 | 2.24 µM [rising, full curve, poor fit]
COc1ccccc1-c1ccc2ncnc(N3CCN(C)CC3)c2c1 | -20.2 | – | -54.8 | 39.8 µM [falling, single point]
CN(C)C(=O)c1ccc(-c2cc(NCc3ccccc3)ncn2)cc1 | 28 | – | 33.7 | 3.55 µM [rising, full curve, poor fit]
COC(=O)[C@@]1(C)CCC[C@@]2(C)c3ccc(O)c(C(C)C)c3CCC21 (some centres not stated) | -11.3 | – | -34.9 | 35.5 µM [falling, single point]
CC(=O)N1CCC2(CC1)CCN(c1cccc(-c3ccccc3)c1)CC2 | 2.68 | – | 6.12 | 3.55 µM [rising, partial curve]
O=C(Oc1ccccc1)N1CCC2(CCCN(c3ccc(-c4ccccc4)cc3)C2)CC1 | 35.8 | 3.98 µM [rising, full curve, poor fit] | -93 | –
Cc1nc2cnc(N3CCOCC3)nc2n(Cc2cccs2)c1=O | 30 | – | 35.9 | 0.0282 µM [rising, full curve, poor fit]
Nc1ccc(S(=O)(=O)Nc2ncccn2)cc1 | 15.2 | – | 25.8 | 0.0398 µM [rising, full curve, poor fit]
O=c1c(-c2ccccc2)nc2cnc(N3CCOCC3)nc2n1Cc1cccs1 | 28.7 | – | 30.1 | 7.94 µM [rising, full curve, poor fit]
COc1ccc(CNc2ccnc(-c3cccc(NS(C)(=O)=O)c3)n2)c(OC)c1 | 22.9 | – | 30.2 | 1.58 µM [rising, partial curve]
O=S(=O)(c1ccccc1)N1CCC2(CCN(c3ccccc3)CC2)CC1 | 16 | – | 24.1 | 1.12 µM [rising, full curve, poor fit]
